SMILES strings stand for the structures. Hit rate of the full screen: of about 310,000 compounds, about 14,000 (4.5%) showed an effect of 50% or more. The effect is printed as a negative number. Some of the results follow.
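Note: peak tail current of the secondary pulse compared with the same well before compound.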

For the assay, the target named is human ether-à-go-go-related gene (hERG) potassium channel (human, UniProt Q12809). Briefly: primary screen, population patch clamp on CHO cells stably expressing hERG.
Sequence of human ether-à-go-go-related gene (hERG) potassium channel (Q12809 whole entry, looked up): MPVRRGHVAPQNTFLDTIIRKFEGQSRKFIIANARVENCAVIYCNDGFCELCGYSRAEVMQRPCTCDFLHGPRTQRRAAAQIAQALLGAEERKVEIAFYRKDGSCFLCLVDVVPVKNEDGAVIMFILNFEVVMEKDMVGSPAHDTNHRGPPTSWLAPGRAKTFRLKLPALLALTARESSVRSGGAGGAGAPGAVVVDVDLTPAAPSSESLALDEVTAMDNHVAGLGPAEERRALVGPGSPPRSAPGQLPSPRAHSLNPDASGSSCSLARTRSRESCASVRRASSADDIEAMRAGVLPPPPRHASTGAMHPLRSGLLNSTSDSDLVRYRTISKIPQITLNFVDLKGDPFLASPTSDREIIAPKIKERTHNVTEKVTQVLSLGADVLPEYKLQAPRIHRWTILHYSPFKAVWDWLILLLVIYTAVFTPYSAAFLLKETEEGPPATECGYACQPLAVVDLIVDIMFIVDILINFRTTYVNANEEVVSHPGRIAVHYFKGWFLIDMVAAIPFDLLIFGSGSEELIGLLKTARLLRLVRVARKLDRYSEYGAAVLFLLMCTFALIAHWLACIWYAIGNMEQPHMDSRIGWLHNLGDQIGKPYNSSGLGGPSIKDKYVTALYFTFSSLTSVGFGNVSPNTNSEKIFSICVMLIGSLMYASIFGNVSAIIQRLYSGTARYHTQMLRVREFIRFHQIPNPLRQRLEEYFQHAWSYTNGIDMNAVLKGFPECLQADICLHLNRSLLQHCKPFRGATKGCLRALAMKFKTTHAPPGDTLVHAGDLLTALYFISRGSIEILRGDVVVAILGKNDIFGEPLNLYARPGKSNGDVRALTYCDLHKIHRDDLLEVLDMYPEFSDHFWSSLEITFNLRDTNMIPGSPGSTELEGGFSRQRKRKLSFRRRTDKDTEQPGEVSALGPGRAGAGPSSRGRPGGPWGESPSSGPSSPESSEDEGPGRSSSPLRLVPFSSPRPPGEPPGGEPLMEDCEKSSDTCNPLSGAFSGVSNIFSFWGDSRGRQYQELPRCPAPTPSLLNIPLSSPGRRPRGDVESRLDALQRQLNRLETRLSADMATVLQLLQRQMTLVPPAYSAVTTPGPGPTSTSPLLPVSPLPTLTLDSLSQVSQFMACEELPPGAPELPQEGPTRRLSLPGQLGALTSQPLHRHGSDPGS
`COc1cccc(C(=O)Nc2ccc3[nH]ncc3c2)c1OC`: the “hERG current change (%, negative = inhibition) at 10uM” value is given as 1.17%.

As to `O=C1CCC(C(=O)N2CCCC2)CN1CCc1cccc(F)c1` (stereo not drawn), the “hERG current change (%, negative = inhibition) at 10uM” value is on record as 4.37%.

Turning to `CCOC(=O)C1=C(C)NC(=S)NC1c1cc(C)sc1C` (stereo not drawn), the “hERG current change (%, negative = inhibition) at 10uM” value is given as 1.19%.

In the case of `CC1(c2ccc3c(c2)OCCO3)NC(=O)N(CC(=O)Nc2ccccc2)C1=O` (stereo not drawn), the “hERG current change (%, negative = inhibition) at 10uM” value is -0.659%.

In the case of `O=C(O)COc1cccc2nsnc12`, the “hERG current change (%, negative = inhibition) at 10uM” value is 4.42%.

Turning to `CC(=O)c1cccc(N(CC(=O)NCC2CCCO2)C(=O)CCC(=O)Nc2cc(C)on2)c1` (stereo not drawn), the “hERG current change (%, negative = inhibition) at 10uM” value was 7.89%.

Regarding `CSCC[C@H](NC(=O)C1CCN(C(=O)[C@H](Cc2ccccc2)NS(=O)(=O)c2ccc(C)cc2)CC1)C(=O)O`, the “hERG current change (%, negative = inhibition) at 10uM” value is 14.7%.

For `COc1cccc2cc(C(C)N(CCCN3CCOCC3)C(=S)Nc3c(C)cccc3C)oc12` (stereo not drawn), the “hERG current change (%, negative = inhibition) at 10uM” value is given as -17.7%.

Consider `COc1ccc2cc(C(=O)N3CCN(c4ccccc4OC)CC3)[nH]c2c1`, for which the “hERG current change (%, negative = inhibition) at 10uM” value is given as 6.01%.

For `Cc1nc2ccccn2c1C(=O)N=Nc1c(O)n(CCC(C)C)c2ccccc12`, the “hERG current change (%, negative = inhibition) at 10uM” value is on record as -5.4%.

Take `Cc1ccc(CNC(=O)CN2C(=O)COc3ccc(C)cc32)cc1`: the “hERG current change (%, negative = inhibition) at 10uM” value is reported as -5.06%.

`COc1ccc(CNC(=O)COC(=O)Cc2ccsc2)cc1`: the “hERG current change (%, negative = inhibition) at 10uM” value was found to be 9.59%.

With `Cc1ccc(C(C2=C(O)CC(C)(C)CC2=O)C2C(=O)CC(C)(C)CC2=O)o1` (stereo not drawn), the “hERG current change (%, negative = inhibition) at 10uM” value amounted to 14.6%.

Regarding `COCCn1c(-c2ccc(Cl)cc2)cnc1SCC(=O)NCCc1ccc(OC)c(OC)c1`, the “hERG current change (%, negative = inhibition) at 10uM” value is recorded as -48.4%.

For the molecule `Cc1[nH]c2ccc(C(=O)N3CCN(c4ccccc4Cl)CC3)cc2c1C`, the “hERG current change (%, negative = inhibition) at 10uM” value came to 6.54%.

Consider `Cc1ccc(C(=O)O/N=C(\N)c2ccccn2)c(C)c1`, for which the “hERG current change (%, negative = inhibition) at 10uM” value is listed as -3.86%.

`COCCCNc1oc(-c2ccccc2Cl)nc1C#N`: the “hERG current change (%, negative = inhibition) at 10uM” value is recorded as -3.84%.

With `O=C(Cn1cc(C(=O)c2ccco2)c2ccccc21)NCc1ccco1`, the “hERG current change (%, negative = inhibition) at 10uM” value was -23.8%.

Take `O=C(O)COc1ccc(-c2nccc(-c3ccccn3)n2)cc1`: the “hERG current change (%, negative = inhibition) at 10uM” value is -1.02%.

Take `COC(=O)c1ccccc1NC(=O)c1cc(C2CC2)on1`: the “hERG current change (%, negative = inhibition) at 10uM” value is given as 2.52%.

Consider `Cc1cc(C)nc(SCc2cc(=O)c(OC(=O)c3ccc(Cl)c([N+](=O)[O-])c3)co2)n1`, for which the “hERG current change (%, negative = inhibition) at 10uM” value worked out at 3.68%.

On to `Cc1cc(N(C)C)c(C#N)c(N2CCOCC2)n1`, for which the “hERG current change (%, negative = inhibition) at 10uM” value stood at 17%.

Take `COc1ccc(-c2cc(C(=O)Nc3c(C)n(C)n(-c4ccccc4)c3=O)no2)cc1OC`: the “hERG current change (%, negative = inhibition) at 10uM” value was determined as 26.1%.

Regarding `Cc1cccc(NC(=O)c2ccc(Cl)c(S(=O)(=O)N3CCc4ccccc43)c2)n1`, the “hERG current change (%, negative = inhibition) at 10uM” value was 3.93%.

In the case of `COc1ccc(CCN(C)C(=O)CSc2nnnn2C)cc1OC`, the “hERG current change (%, negative = inhibition) at 10uM” value was 26.3%.

Turning to `O=S(=O)(c1ccc(Cl)s1)N1CCC(Cc2ccccc2)CC1`, the “hERG current change (%, negative = inhibition) at 10uM” value is recorded as -5.12%.

Turning to `CC(=O)N1c2ccc(S(=O)(=O)N3CCCC3C(=O)NCc3ccccc3Cl)cc2CC1C` (stereo not drawn), the “hERG current change (%, negative = inhibition) at 10uM” value is given as -40%.

With `CCc1cccc(CC)c1NC(=O)c1cc(CN2C(=O)c3ccccc3C2=O)ccc1OC`, the “hERG current change (%, negative = inhibition) at 10uM” value is listed as -28.5%.

As to `O=C(Nc1ccccn1)NC(C(F)(F)F)C(F)(F)F`, the “hERG current change (%, negative = inhibition) at 10uM” value was determined as 12.1%.

As for `O=C(NCCCN1CCCC1=O)c1ccc(Cl)c(Cl)c1`, the “hERG current change (%, negative = inhibition) at 10uM” value was found to be 5.91%.

Turning to `COc1ccccc1C/C(N)=N/OC(=O)c1ccc(C)c([N+](=O)[O-])c1`, the “hERG current change (%, negative = inhibition) at 10uM” value is reported as -6.78%.

Turning to `Cc1c(C)[n+](=O)c2c(n1[O-])CCCCC2`, the “hERG current change (%, negative = inhibition) at 10uM” value was 6.1%.

With `c1ccc2c(c1)nc(Nc1ccc(N3CCCCC3)cc1)c1nncn12`, the “hERG current change (%, negative = inhibition) at 10uM” value was -13.8%.

On to `O=C(O)CC1NC(=S)N(c2ccccc2)C1=O` (stereo not drawn), for which the “hERG current change (%, negative = inhibition) at 10uM” value turned out to be 3.9%.

With `CCOc1ccc(Cl)cc1S(=O)(=O)N1CCC(C(=O)NCc2cccnc2)CC1`, the “hERG current change (%, negative = inhibition) at 10uM” value is recorded as -19.1%.

Regarding `Cc1ccccc1CS(=O)(=O)CCC(=O)NCCCN1CCN(c2ccccc2F)CC1`, the “hERG current change (%, negative = inhibition) at 10uM” value is given as -59.3%.

As for `O=C(NCCCN1CCOCC1)C(=O)NCC1OCCN1S(=O)(=O)c1cc(F)ccc1F` (stereo not drawn), the “hERG current change (%, negative = inhibition) at 10uM” value was 1.21%.

In the case of `CCOc1cccc(Oc2ccc(C(F)(F)F)cn2)c1`, the “hERG current change (%, negative = inhibition) at 10uM” value is recorded as -45.1%.

On to `CCN1c2nc3ccccn3c(=O)c2CC2(C(=O)N(C)C(=O)N(C)C2=O)C1C` (stereo not drawn), for which the “hERG current change (%, negative = inhibition) at 10uM” value was determined as 2.38%.

Consider `CC(C)c1ccc(OCC(=O)N2CCCN(C)CC2)cc1`, for which the “hERG current change (%, negative = inhibition) at 10uM” value is reported as -14.9%.

Consider `CCC(=O)N1c2ccc(S(=O)(=O)NCCc3ccc(C)cc3)cc2CC1C` (stereo not drawn), for which the “hERG current change (%, negative = inhibition) at 10uM” value is -1.96%.

With `Nc1ccc(-c2ncc(-c3ccccc3)o2)cc1`, the “hERG current change (%, negative = inhibition) at 10uM” value is 12.6%.

(Values after PMC4336329 (PLoS ONE, 2015).)
